The assay has as its system NCI-H322M lung. Nature of the assay: NCI-60 cell line screen, 48 h.

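Step 1: Grow cells in 96-well plates. Step 2: Expose to compound for 48 hours at 5 concentrations. Step 3: Interpolate endpoints linearly; if unreached, use highest concentration. GI50 is the concentration that inhibits growth by half. At the TGI there is no net growth.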

Regarding `O=C(CSc1nnc(-c2ccc(-c3nc4ccccc4[nH]3)cc2)o1)Nc1ccc(Br)cc1`, the GI50 is 5.01 µM and the TGI amounted to 18 µM.

These data come from PubChem BioAssay (NCI).
